In PubChem BioAssay (NCATS):
Inconclusive results are not listed. Unless noted, the call rests on the fitted dose curve. The source holds several records for some structures; these can differ, active in one and inactive in another. Certain results were filed several times, with different values. They are shown here; other results are not. There may be further records. Values given together are repeated measurements across runs, samples, wells, individuals or studies. Brackets tell where a record comes from. Letters hold for one entry only.

Columns and labels:
[1] = qHTS for Inhibitors of the Functional Ribonucleoprotein Complex (vRNP) of Lassa (LASV) Arenavirus: Viability assay - alamar blue signal for LASV Primary Screen (AID 1347083; calls by dose curve; tested in HEK293 reporter line; further: nearly all actives have a fitted effect of over 80% in size)
[2] = qHTS for Inhibitors of the Functional Ribonucleoprotein Complex (vRNP) of Lymphocytic Choriomeningitis Arenaviruses (LCMV): Viability assay - alamar blue signal for LCMV Primary Screen (AID 1347085; calls by dose curve; tested in HEK293 reporter line; further: nearly all actives have a fitted effect of over 80% in size)
[3] = qHTS for Inhibitors of the Functional Ribonucleoprotein Complex (vRNP) of Lassa (LASV) Arenavirus: LASV Primary Screen - GLuc reporter signal (AID 1347082; calls by dose curve; tested in HEK293 reporter line; further: nearly all actives have a fitted effect of over 60% in size)
[4] = target: Nucleoprotein (Lymphocytic choriomeningitis virus (strain Armstrong)) (UniProt P09992); experiment: qHTS for Inhibitors of the Functional Ribonucleoprotein Complex (vRNP) of Lymphocytic Choriomeningitis Arenaviruses (LCMV): LCMV Primary Screen - GLuc reporter signal (AID 1347086); further: nearly all actives have a fitted effect of over 70% in size
Potency means the concentration at half of the fitted maximal effect.

Sequence of UniProt P09992 (P09992 whole entry, looked up): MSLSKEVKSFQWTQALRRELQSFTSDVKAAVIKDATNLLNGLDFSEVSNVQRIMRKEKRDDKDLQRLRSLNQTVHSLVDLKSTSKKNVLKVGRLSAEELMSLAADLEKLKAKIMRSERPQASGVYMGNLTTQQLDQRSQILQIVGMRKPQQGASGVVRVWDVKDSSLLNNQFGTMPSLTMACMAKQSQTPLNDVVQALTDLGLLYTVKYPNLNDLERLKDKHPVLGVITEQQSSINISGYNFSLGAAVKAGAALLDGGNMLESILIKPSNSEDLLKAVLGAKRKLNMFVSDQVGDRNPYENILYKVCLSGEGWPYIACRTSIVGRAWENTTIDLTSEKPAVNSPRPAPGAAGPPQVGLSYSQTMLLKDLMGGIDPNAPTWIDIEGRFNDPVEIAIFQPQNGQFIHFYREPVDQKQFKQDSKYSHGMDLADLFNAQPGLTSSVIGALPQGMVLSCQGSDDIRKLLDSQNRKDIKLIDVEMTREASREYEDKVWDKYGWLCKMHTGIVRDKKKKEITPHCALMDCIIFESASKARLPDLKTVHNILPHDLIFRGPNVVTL

| SMILES | Potency [1] | Potency [2] | Potency [3] | Potency [4] |
| --- | --- | --- | --- | --- |
| O=C1NC(=O)C(c2ccccc2[N+](=O)[O-])=C1Nc1ccc(O)c(Cl)c1 | inactive [sample A] and active: 2.73 µM [sample B] | inactive [sample A] and active: 122 nM [sample B] |  |  |
| O=c1ccc2ccc(O)c(O)c2o1 |  |  | inactive [sample A] and active: 17.2 µM [sample B] and inactive [sample C] | inactive [sample A] and active: 15.3 µM [sample B] and inactive [sample C] |
| CN(C)CCCC1(c2ccc(F)cc2)OCc2cc(C#N)ccc21 (stereo unspecified) |  |  |  | inactive [sample A] and active: 24.3 µM [sample B] |
| O=C1C(c2c(O)[nH]c3ccccc23)=Nc2ccccc21 | inactive [sample A] and active: 2.17 µM [sample B] | inactive [sample A] and active: 611 nM [sample B] | inactive [sample A] and active: 3.43 µM [sample B] | inactive [sample A] and active: 769 nM [sample B] |
| CC(=O)O[C@H]1C(=O)[C@@]2(C)C([C@H](OC(=O)c3ccccc3)[C@]3(O)C[C@H](OC(=O)[C@H](O)[C@@H](NC(=O)c4ccccc4)c4ccccc4)C(C)=C1C3(C)C)[C@]1(OC(C)=O)CO[C@@H]1C[C@@H]2O (stereo partly specified) | inactive [sample A] and active: 7.7 nM [sample B] | inactive [sample A] and active: 6.9 nM [sample B] |  |  |
| Oc1ccc2ccccc2c1SSc1c(O)ccc2ccccc12 | inactive [sample A] and active: 24.3 µM [sample B] | inactive [sample A] and active: 12.2 µM [sample B] |  | inactive [sample A] and active: 24.3 µM [sample B] |
| COc1ccc([C@@H]2CC(=O)c3c(O)cc(O[C@@H]4O[C@H](CO[C@@H]5O[C@@H](C)[C@H](O)[C@@H](O)[C@@H]5O)[C@@H](O)[C@H](O)[C@@H]4O)cc3O2)cc1O |  | active: 13.7 µM [sample A] and inactive [sample B] |  |  |
| O=c1c(-c2ccc(O)cc2)coc2cc(O)ccc12 | inactive [sample A] and active: 19.3 µM [sample B] and inactive [sample C] |  |  |  |
